# The supplement of paper PMC8728848
# The other results are listed elsewhere or left out.
# Key:
# Assay in all cases: glycan array binding signal (z-score within array); higher = stronger binding
# Settings in all cases: glycan notation: IUPAC condensed, linker removed
# [1] = target: Neu5Ac(a2-3)Gal(b1-3)[GlcNAc(b1-6)]GalNAc
# Outline: (§1)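 Negative Z-scores can be read as non-binding. The Z-score is calculated within each array and then averaged across arrays of one protein sequence at different concentrations or buffers and across linkers. Arrays, 3228 in all, were curated from the Consortium for Functional Glycomics database and kept only where the protein sequence was available.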
# [2] = target: Neu5Ac(a2-3)Gal(b1-3)[Neu5Ac(a2-3)Gal(b1-4)]GlcNAc
# Outline: as §1
# [3] = target: Neu5Ac(a2-3)Gal(b1-3)[Neu5Ac(a2-6)]GalNAc
# Outline: as §1
# [4] = target: Neu5Ac(a2-3)Gal(b1-3)[Neu5Ac(a2-6)]GlcNAc(b1-3)[Fuc(a1-3)[Gal(b1-4)]GlcNAc(b1-6)]Gal(b1-4)Glc
# Outline: as §1
# [5] = target: Neu5Ac(a2-3)Gal(b1-3)]Neu5Ac(a2-3)Gal(b1-4)]GlcNAc
# Outline: as §1
# Neu5Ac(a2-3)Gal(b1-4)Glc = target: Neu5Ac(a2-3)Gal(b1-4)Glc
# Outline: as §1
# [6] = target: Neu5Ac(a2-3)Gal(b1-4)GlcNAc
# Outline: as §1
# [7] = target: Neu5Ac(a2-3)Gal(b1-4)GlcNAc(b1-2)Man
# Outline: as §1
# [8] = target: Neu5Ac(a2-3)Gal(b1-4)GlcNAc(b1-2)Man(a1-3)[GlcNAc(b1-4)][Neu5Ac(a2-3)Gal(b1-4)GlcNAc(b1-2)Man(a1-6)]Man(b1-4)GlcNAc(b1-4)GlcNAc
# Outline: as §1
# [9] = target: Neu5Ac(a2-3)Gal(b1-4)GlcNAc(b1-2)Man(a1-3)[Neu5Ac(a2-3)Gal(b1-4)GlcNAc(b1-2)Man(a1-6)]Man(b1-4)GlcNAc(b1-4)GlcNAc
# Outline: as §1
# [10] = target: Neu5Ac(a2-3)Gal(b1-4)GlcNAc(b1-2)Man(a1-3)[Neu5Ac(a2-3)Gal(b1-4)GlcNAc(b1-2)Man(a1-6)]Man(b1-4)GlcNAc(b1-4)[Fuc(a1-6)]GlcNAc
# Outline: as §1
# [11] = target: Neu5Ac(a2-3)Gal(b1-4)GlcNAc(b1-2)Man(a1-3)[Neu5Ac(a2-6)Gal(b1-4)GlcNAc(b1-2)Man(a1-6)]Man(b1-4)GlcNAc(b1-4)GlcNAc
# Outline: as §1
# [12] = target: Neu5Ac(a2-3)Gal(b1-4)GlcNAc(b1-2)[Neu5Ac(a2-3)Gal(b1-4)GlcNAc(b1-4)]Man(a1-3)[GlcNAc(b1-4)][Neu5Ac(a2-3)Gal(b1-4)GlcNAc(b1-2)[Neu5Ac(a2-3)Gal(b1-4)GlcNAc(b1-6)]Man(a1-6)]Man(b1-4)GlcNAc(b1-4)GlcNAc
# Outline: as §1
# [13] = target: Neu5Ac(a2-3)Gal(b1-4)GlcNAc(b1-2)[Neu5Ac(a2-3)Gal(b1-4)GlcNAc(b1-4)]Man(a1-3)[GlcNAc(b1-4)][Neu5Ac(a2-3)Gal(b1-4)GlcNAc(b1-4)Man(a1-6)]Man(b1-4)GlcNAc(b1-4)GlcNAc
# Outline: as §1
# [14] = target: Neu5Ac(a2-3)Gal(b1-4)GlcNAc(b1-2)[Neu5Ac(a2-3)Gal(b1-4)GlcNAc(b1-6)]Man(a1-6)[Neu5Ac(a2-3)Gal(b1-4)GlcNAc(b1-2)Man(a1-3)]Man(b1-4)GlcNAc(b1-4)GlcNAc
# Outline: as §1
# [15] = target: Neu5Ac(a2-3)Gal(b1-4)GlcNAc(b1-2)[Neu5Ac(a2-3)Gal(b1-4)GlcNAc(b1-6)]Man(a1-6)[Neu5Ac(a2-3)Gal(b1-4)GlcNAc(b1-2)Man(a1-3)][GlcNAc(b1-4)]Man(b1-4)GlcNAc(b1-4)GlcNAc
# Outline: as §1
# [16] = target: Neu5Ac(a2-3)Gal(b1-4)GlcNAc(b1-3)Gal
# Outline: as §1
# [17] = target: Neu5Ac(a2-3)Gal(b1-4)GlcNAc(b1-3)Gal(b1-3)GlcNAc
# Outline: as §1
# [18] = target: Neu5Ac(a2-3)Gal(b1-4)GlcNAc(b1-3)Gal(b1-4)GlcNAc
# Outline: as §1
# [19] = target: Neu5Ac(a2-3)Gal(b1-4)GlcNAc(b1-3)Gal(b1-4)GlcNAc(b1-2)Man(a1-3)[Neu5Ac(a2-3)Gal(b1-4)GlcNAc(b1-3)Gal(b1-4)GlcNAc(b1-2)Man(a1-6)]Man(b1-4)GlcNAc(b1-4)GlcNAc
# Outline: as §1
# [20] = target: Neu5Ac(a2-3)Gal(b1-4)GlcNAc(b1-3)Gal(b1-4)GlcNAc(b1-3)Gal(b1-4)GlcNAc
# Outline: as §1
# [21] = target: Neu5Ac(a2-3)Gal(b1-4)GlcNAc(b1-3)Gal(b1-4)GlcNAc(b1-3)Gal(b1-4)GlcNAc(b1-2)Man(a1-3)[Neu5Ac(a2-3)Gal(b1-4)GlcNAc(b1-3)Gal(b1-4)GlcNAc(b1-3)Gal(b1-4)GlcNAc(b1-2)Man(a1-6)]GalNAc
# Outline: as §1
# [22] = target: Neu5Ac(a2-3)Gal(b1-4)GlcNAc(b1-3)Gal(b1-4)GlcNAc(b1-3)GalNAc
# Outline: as §1
# [23] = target: Neu5Ac(a2-3)Gal(b1-4)GlcNAc(b1-3)Gal(b1-4)GlcNAc(b1-3)[Neu5Ac(a2-3)Gal(b1-4)GlcNAc(b1-3)Gal(b1-4)GlcNAc(b1-6)]GalNAc
# Outline: as §1
# [24] = target: Neu5Ac(a2-3)Gal(b1-4)GlcNAc(b1-3)Gal(b1-4)GlcNAc(b1-6)[Gal(b1-3)]GalNAc
# Outline: as §1
# [25] = target: Neu5Ac(a2-3)Gal(b1-4)GlcNAc(b1-3)Gal(b1-4)[Fuc(a1-3)]GlcNAc
# Outline: as §1
# [26] = target: Neu5Ac(a2-3)Gal(b1-4)GlcNAc(b1-3)GalNAc
# Outline: as §1
# [27] = target: Neu5Ac(a2-3)Gal(b1-4)GlcNAc(b1-3)[Neu5Ac(a2-3)Gal(b1-4)GlcNAc(b1-6)]GalNAc
# Outline: as §1
# [28] = target: Neu5Ac(a2-3)Gal(b1-4)GlcNAc(b1-6)GalNAc
# Outline: as §1
# [29] = target: Neu5Ac(a2-3)Gal(b1-4)GlcNAc(b1-6)[Gal(b1-3)]GalNAc
# Outline: as §1
# [30] = target: Neu5Ac(a2-3)Gal(b1-4)GlcNAc(b1-6)[Neu5Ac(a2-3)Gal(b1-3)]GalNAc
# Outline: as §1
# [31] = target: Neu5Ac(a2-3)Gal(b1-4)GlcNAc6S
# Outline: as §1
# [32] = target: Neu5Ac(a2-3)Gal(b1-4)[Fuc(a1-3)]GlcNAc
# Outline: as §1
# [33] = target: Neu5Ac(a2-3)Gal(b1-4)[Fuc(a1-3)]GlcNAc(b1-2)Man
# Outline: as §1
# [34] = target: Neu5Ac(a2-3)Gal(b1-4)[Fuc(a1-3)]GlcNAc(b1-3)Gal
# Outline: as §1
# [35] = target: Neu5Ac(a2-3)Gal(b1-4)[Fuc(a1-3)]GlcNAc(b1-3)Gal(b1-4)GlcNAc
# Outline: as §1
# [36] = target: Neu5Ac(a2-3)Gal(b1-4)[Fuc(a1-3)]GlcNAc(b1-3)Gal(b1-4)[Fuc(a1-3)]GlcNAc(b1-3)Gal(b1-4)[Fuc(a1-3)]GlcNAc
# Outline: as §1
binder,measurement,setting,value
GSL-I (Griffonia simplicifolia) (protein) FNLPNFWSDVKDNIIFQGDANTTAGTLQLCKTNQYGNPLQYRAGRALYSDPVQLWDNKTGSVASFYTEFTFFLKITGDGPADGLAFFLAPPDSDVKDAGAYLGLFNKSTATQPSKNQVVAVEFDTWKNTDFPEPSYRHIGINVNSIVSVATKRWEDSDIFSGKIATARISYDGSAKILTVVLSYPDGADYILSHSVDLSKNLPNPIRVGISASTGANQFLTVYVLSWRFSSALQSTSVNAAMGPEIIRTVV,glycan array binding signal (z-score),[1],-0.286
same,glycan array binding signal (z-score),[2],-0.318
same,glycan array binding signal (z-score),[3],-0.189
same,glycan array binding signal (z-score),[4],-0.185
same,glycan array binding signal (z-score),[5],-0.158
same,glycan array binding signal (z-score),Neu5Ac(a2-3)Gal(b1-4)Glc,-0.154
same,glycan array binding signal (z-score),[6],-0.25
same,glycan array binding signal (z-score),[7],-0.07
same,glycan array binding signal (z-score),[8],-0.295
same,glycan array binding signal (z-score),[9],-0.119
same,glycan array binding signal (z-score),[10],-0.283
same,glycan array binding signal (z-score),[11],-0.197
same,glycan array binding signal (z-score),[12],-0.195
same,glycan array binding signal (z-score),[13],-0.277
same,glycan array binding signal (z-score),[14],-0.144
same,glycan array binding signal (z-score),[15],-0.315
same,glycan array binding signal (z-score),[16],-0.286
same,glycan array binding signal (z-score),[17],-0.257
same,glycan array binding signal (z-score),[18],-0.155
same,glycan array binding signal (z-score),[19],0.912
same,glycan array binding signal (z-score),[20],-0.261
same,glycan array binding signal (z-score),[21],2.34
same,glycan array binding signal (z-score),[22],-0.304
same,glycan array binding signal (z-score),[23],0.139
same,glycan array binding signal (z-score),[24],0.089
same,glycan array binding signal (z-score),[25],-0.249
same,glycan array binding signal (z-score),[26],-0.241
same,glycan array binding signal (z-score),[27],-0.301
same,glycan array binding signal (z-score),[28],-0.325
same,glycan array binding signal (z-score),[29],-0.143
same,glycan array binding signal (z-score),[30],-0.083
same,glycan array binding signal (z-score),[31],-0.306
same,glycan array binding signal (z-score),[32],-0.24
same,glycan array binding signal (z-score),[33],-0.227
same,glycan array binding signal (z-score),[34],-0.296
same,glycan array binding signal (z-score),[35],-0.165
same,glycan array binding signal (z-score),[36],-0.137
